Assay results as given in PubChem BioAssay AID1476 (National Center for Advancing Translational Sciences (NCATS), 2009).
Among all 200,000 compounds or so, about 4,500 (2.2%) were called active. Inconclusive results, whose numbers are uncertain, are shown with a selection of clear calls. Calls come from the whole dose curve; as a rule, active = well fitted inhibition curve with a large enough effect; inconclusive = small, poorly fitted or top-dose-only effect, or effect the other way; inactive = flat fitted curve, though single readings scatter. Potencies of inconclusive entries are doubtful fits and often do not repeat.

Target: Cruzipain (Trypanosoma cruzi) (UniProt P25779)
Assay: qHTS Assay for Promiscuous and Specific Inhibitors of Cruzain (without detergent); note: nearly all actives have a fitted effect of over 40% in size;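 for max response, negative = inhibition: plate controls were enzyme without inhibitor for no effect and buffer without enzyme for full effect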
Conditions: purified cruzain, Z-FR-AMC fluorescence, no detergent
Outline: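 Detergent-free condition (0.00005% Triton X-100) in acetate buffer pH 5.5 with DTT. 1.5 nM enzyme and compound were pre-mixed 15 min, then 2 uM Z-FR-AMC substrate added; reaction progress from fluorescence change between first and third reads (60 s).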
Potency is the fitted concentration of half-maximal effect; tags give direction and shape of the fitted curve.

Chain of UniProt P25779 (P25779 whole entry, looked up): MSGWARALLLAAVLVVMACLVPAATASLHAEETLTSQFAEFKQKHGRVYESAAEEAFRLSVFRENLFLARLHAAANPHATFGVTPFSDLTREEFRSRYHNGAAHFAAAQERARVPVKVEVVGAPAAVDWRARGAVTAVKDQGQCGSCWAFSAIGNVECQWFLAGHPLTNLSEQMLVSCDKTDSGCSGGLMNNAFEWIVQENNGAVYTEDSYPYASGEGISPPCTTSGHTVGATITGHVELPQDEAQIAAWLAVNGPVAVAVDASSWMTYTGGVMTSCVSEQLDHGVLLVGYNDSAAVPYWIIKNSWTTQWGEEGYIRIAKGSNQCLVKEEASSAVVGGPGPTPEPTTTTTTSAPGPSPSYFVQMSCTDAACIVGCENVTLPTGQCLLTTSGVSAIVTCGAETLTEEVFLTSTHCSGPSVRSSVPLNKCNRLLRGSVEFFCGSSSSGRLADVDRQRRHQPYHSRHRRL

Row | SMILES | Potency | max response, negative = inhibition
1 | Cc1cccc(-c2nc3c(c(SCC(=O)N(C)C)n2)CCCC3)c1 | inconclusive: 31.6 µM [activator, single point] | –
2 | O=C(Nc1ccc2c(c1)OCO2)c1cc(-c2cccc(Cl)c2)on1 | – | inactive: -7.12%
3 | O=C(c1ccncc1)c1ccc(N2CCN(C3CC(=O)N(Cc4ccccc4)C3=O)CC2)cc1 (stereo not given) | inconclusive: 39.8 µM [activator, single point] | –
4 | Cc1ccc(C)c(N2CCN(C(=O)Cn3cnc4sc(C)c(S(=O)(=O)N5CCN(c6ncccn6)CC5)c4c3=O)CC2)c1 | inconclusive: 39.8 µM [activator, single point] | –
5 | COc1ccc(N2CCN(C(=O)CN=C3NS(=O)(=O)C(c4ccc(C)cc4)=C3C)CC2)cc1 | inconclusive: 39.8 µM [activator, single point] | –
6 | CCOc1cc(/C=C2/SC(=O)N(CC(=O)N3CCc4ccccc4C3)C2=O)ccc1OCC(=O)O | inconclusive: 6.31 µM [activator, single point] | –
7 | CCc1cc(C(c2ccc(OC)c(OC)c2)N2CCOCC2)c(NC(=O)c2ccccc2)s1 (stereo not given) | inconclusive: 31.6 µM [activator, single point] | –
8 | CCOc1ccc2nc(NC(=O)C3CCCN(S(=O)(=O)c4cccs4)C3)sc2c1 (stereo not given) | inconclusive: 31.6 µM [inhibitor, single point] | –
9 | O=[N+]([O-])c1c(NCCO)cc(N2CCN(Cc3ccc4c(c3)OCO4)CC2)c2nonc12 | inconclusive: 31.6 µM [activator, single point] | –
10 | COc1ccc(-c2noc(CSc3nnc(CCc4ccccc4)n3-c3ccccc3)n2)cc1OC | inconclusive: 39.8 µM [activator, single point] | –
11 | O=c1c2ccccc2nc(SCc2cc(F)ccc2F)n1C1CCCC1 | inconclusive: 39.8 µM [inhibitor, single point] | –
12 | COc1ccc(CNC(=O)CSCc2nc(-c3ccccc3F)oc2C)cc1 | – | inactive: -2.99%
13 | CC(C)(C)c1ccc(-c2noc(CCC(=O)NCC3CCCO3)n2)cc1 (stereo not given) | inconclusive: 39.8 µM [activator, single point] | –
14 | CCOc1ccccc1CNC(=O)Cn1c(=O)oc2ccccc21 | – | inactive: -9.27%
15 | CCc1ccc(C2=CC(c3cccc(C)c3)n3c(nc4ccccc43)N2)cc1 (stereo not given) | inconclusive: 39.8 µM [inhibitor, single point] | –
16 | O=C(Nc1nc(-c2ccccc2)cs1)c1ccc(Br)o1 | inconclusive: 39.8 µM [inhibitor, single point] | –
17 | COc1ccc(-c2cc(C(F)(F)F)nc(SCC(=O)N3CC(C)OC(C)C3)n2)cc1OC (stereo not given) | inconclusive: 20 µM [activator, partial curve] | –
18 | N#CC1=C2N=C(N)c3c(sc4c3CCCCC4)N2C2=C(C(=O)CCC2)C1c1ccccc1 (stereo not given) | active: 25.1 µM | –
19 | COc1ccc(OC)c(C2N(c3ccc(Cl)cc3)C(=O)C3CCCN32)c1 (stereo not given) | inconclusive: 39.8 µM [activator, single point] | –
20 | COc1ccc(-c2cc(OC(=O)c3ccccc3C)c3c(C)oc(C)c3c(=O)c2)cc1 | – | inactive: 0.351%
21 | CCc1cccc(C)c1NC(=O)c1cc(S(=O)(=O)N(C)Cc2ccccc2)ccc1F | – | inactive: -13.7%
22 | COc1cc2cc(C(c3nnnn3C3CCCCC3)N(C)C3CCCCC3)c(=O)[nH]c2cc1OC (stereo not given) | inconclusive: 39.8 µM [activator, single point] | –

Row | SMILES | Potency | max response, negative = inhibition
23 | CCOC(=O)N1CCC(NC(=O)c2cc(C)c3c(C)nn(-c4ccccc4)c3n2)CC1 | inconclusive: 31.6 µM [activator, single point] | –
24 | CCc1ccc2oc(C(=O)NCC(c3ccc(Cl)cc3)N3CCOCC3)c(C)c2c1 (stereo not given) | – | inactive: 15.1%
25 | NC(=O)C1CCN(C(=O)N2c3ccccc3Sc3ccccc32)CC1 | inconclusive: 39.8 µM [activator, single point] | –
26 | CCOc1ccc2nc(NC(=O)C3CCCN(S(=O)(=O)c4cccc5nonc45)C3)sc2c1 (stereo not given) | inconclusive: 39.8 µM [inhibitor, single point] | –
27 | O=C(Nc1ccccc1Cl)c1ccc(F)c(S(=O)(=O)NCc2ccc(Cl)c(Cl)c2)c1 | inconclusive: 31.6 µM [inhibitor, single point] | –
28 | COc1ccc(CN2CCCN(CC(=O)Nc3cc(C)ccc3C)S2(=O)=O)cc1 | – | inactive: 10.3%
29 | CCOC(=O)c1sc(N2C(=O)c3oc4cc(C)c(C)cc4c(=O)c3C2c2ccc(C)cc2)nc1C (stereo not given) | – | inactive: 12.1%
30 | CCOc1ccc(NC(=O)c2ccc(CN3C(=O)C(C)=C(c4ccc(C)cc4)S3(=O)=O)cc2)cc1 | – | inactive: -0.514%
31 | FC(F)(F)c1ccccc1-c1ccc2ncnc(NCCN3CCOCC3)c2c1 | – | inactive: 14.9%
32 | CC(=O)Nc1ccccc1-c1nc2ccccc2n(C(C)C(=O)Nc2cc(Cl)ccc2C)c1=O (stereo not given) | – | inactive: -6.18%
33 | O=C1Nc2cc(S(=O)(=O)N3CCCC3)ccc2N2CCCC12 (stereo not given) | inconclusive: 39.8 µM [activator, single point] | –
34 | CCN(CC)S(=O)(=O)c1nnc(NC(=O)COc2ccc(C)cc2)s1 | – | inactive: 5.03%
35 | CC(=O)Nc1ccc(NC(=O)CCc2c(C)nc3c(c(C)nn3-c3ccc(C)cc3)c2C)cc1 | inconclusive: 6.31 µM [activator, full curve, poor fit] | –
36 | CC(C)(C)n1nnnc1C(c1cc2cc3c(cc2[nH]c1=O)OCO3)N1CCN(c2ccccc2)CC1 (stereo not given) | inconclusive: 39.8 µM [activator, single point] | –
37 | O=C1CC(SCc2nc3ccccc3[nH]2)C(=O)N1c1ccc(F)cc1 (stereo not given) | inconclusive: 20 µM [inhibitor, partial curve] | –
38 | CCn1nc(C)c(NC(=O)CCCSc2nc(-c3ccco3)cc(C(F)(F)F)n2)c1C | inconclusive: 31.6 µM [activator, single point] | –
39 | Cc1nc2c3cccnc3nn2c(C)c1CCC(=O)NCc1ccccc1Cl | inconclusive: 6.31 µM [activator, partial curve] | –
40 | CC(=O)Nc1ccc(C(=O)OCC(=O)N(Cc2ccccc2)C(C)(C)C)cc1 | inconclusive: 39.8 µM [activator, single point] | –
41 | CCn1c(CNC(=O)C23CC4CC(CC(C4)C2)C3)nnc1SCC(=O)Nc1ccc(C)cc1 | inconclusive: 39.8 µM [activator, single point] | –
42 | CCN(CC)C(=O)c1sc(NC(=O)c2ccoc2C)c(C(=O)OC)c1C | inconclusive: 31.6 µM [activator, single point] | –
43 | COc1ccc(-n2c(-c3ccccc3F)nc3c(cnn3-c3ccc(C)cc3)c2=O)cc1 | – | inactive: -18.3%
44 | Cc1ccc(/C(=N\O)c2oc3c(C)c4oc(=O)cc(C)c4cc3c2C)cc1 | inconclusive: 31.6 µM [inhibitor, single point] | –

Row | SMILES | Potency | max response, negative = inhibition
45 | COc1cc(OC)c(NC(=O)c2sc3nc4n(c(=O)c3c2C)CCCC4)cc1Cl | inconclusive: 39.8 µM [activator, single point] | –
46 | COC(=O)c1ccc(/C=N/Nc2nc(-c3ccccc3)cs2)cc1 | active: 12.6 µM | –
47 | COC(=O)c1cc2oc3ccccc3c2n1CC(=O)Nc1cccc(SC)c1 | inconclusive: 31.6 µM [inhibitor, single point] | –
48 | CC1=CC(=O)C2C(C)(C)CCC[C@@]2(C)[C@@]1(O)CCc1ccoc1 (stereo not given in full) | – | inactive: 12.2%
49 | CCOc1ccc(CN2C(=O)c3ccccc3Sc3ccc(C(=O)NCc4ccc5c(c4)OCO5)cc32)cc1 | active: 10 µM | –
50 | CCOC(=O)COc1c(Br)cc(/C=C2\SC(=O)N(CC(=O)N3CCCC3)C2=O)cc1OC | inconclusive: 31.6 µM [activator, single point] | –
51 | CCCCn1c(=O)c2oc3ccccc3c2n(CC(=O)Nc2cc(C)ccc2C)c1=O | – | inactive: 22.6%
52 | CCOC(=O)N1CCN(C(=O)CSc2nnc(Cc3cccn3C)n2CCc2ccccc2)CC1 | inconclusive: 31.6 µM [activator, single point] | –
53 | COc1ccc(CN2CCn3ncc(C(=O)Nc4ccc(Cl)cc4Cl)c3C2=O)cc1 | active: 5.01 µM | –
54 | COc1cc(OC)c(NC(=O)Cc2c(C(=O)O)c(C)cn2C)cc1Cl | – | inactive: 2.31%
55 | COc1ccc(C(=S)N2CCCCCC2)cc1 | – | inactive: -2.42%
56 | COc1cccc(CN(Cc2cccnc2)S(=O)(=O)c2ccc(-n3cnnn3)c(C)c2)c1OC | inconclusive: 31.6 µM [activator, single point] | –
57 | O=c1cc(-c2ccccc2)nc2nc(CCc3ccccc3)[nH]n12 | inconclusive: 31.6 µM [inhibitor, single point] | –
58 | COC(=O)c1ccc(OCC2c3cc(OC)c(OC)cc3CCN2C(=O)c2ccc(OC)cc2)cc1 (stereo not given) | inconclusive: 39.8 µM [activator, single point] | –
59 | O=C(O)c1ccc(COc2ccc3c4c(c(=O)oc3c2)CCC4)o1 | – | inactive: 0.0285%
60 | O=C(/C=C/c1ccco1)Nc1ccc(Oc2ccccc2)cc1 | – | inactive: -5.89%
61 | O=C(CSc1nnc(-c2ccccc2Br)n1-c1ccccc1)c1ccc(F)cc1 | inconclusive: 39.8 µM [inhibitor, single point] | –
62 | CC(C)Cn1c(N)c(C(=O)NCC2CCCO2)c2nc3ccccc3nc21 (stereo not given) | inconclusive: 31.6 µM [activator, single point] | –
63 | Cc1cc(-c2ccc(S(=O)(=O)Nc3cccc(C)c3C)s2)on1 | – | inactive: -2.82%
64 | CC(=O)Nc1c2sscc-2n(C)c1=O | – | inactive: -5.67%
65 | COc1ccc(-c2c(C#N)c(SCC(=O)Nc3ccc(C)c(C)c3)nc(C)c2C(=O)Nc2ccc(Cl)cc2)cc1 | active: 6.31 µM | –
